Some of the results follow.
T1: UNK ZnF1-6 (called full-length) (human, UniProt Q9C0B0 30-357)
T1 sequence: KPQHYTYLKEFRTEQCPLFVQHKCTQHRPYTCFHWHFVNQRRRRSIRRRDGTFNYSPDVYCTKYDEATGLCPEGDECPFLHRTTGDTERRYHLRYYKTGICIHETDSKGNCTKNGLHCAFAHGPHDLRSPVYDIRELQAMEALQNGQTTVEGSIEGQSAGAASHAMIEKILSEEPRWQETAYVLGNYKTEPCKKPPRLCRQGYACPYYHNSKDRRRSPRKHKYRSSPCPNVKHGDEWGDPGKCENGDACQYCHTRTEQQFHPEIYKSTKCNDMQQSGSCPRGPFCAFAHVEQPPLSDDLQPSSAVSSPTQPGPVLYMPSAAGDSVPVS

B1: ENSG00000107863:be:win_2451|CDS|ENSG00000107863|bound_else_gene|NA|bound_elsewhere_windowed (ssRNA)
RNA: GGGAGUUCUACAGUCCGACGAUCUGAUAUUGCACAUAUCCCUGCCUCUGCUGUUAUAUCAGCCUCUACCUCUCAGGUCCCCUCCAUAGCAACAGUUCCUCCUUGCCUCACAACUUCAGCUCCAUUAAUUCGCCGUCAGCUCUCCAACAGAGGAUUGAGCAUCA
B2: chr9:19276226:19276327:+|CDS|ENSG00000137145|unk|total|mutant (ssRNA)
RNA: GGGAGUUCUACAGUCCGACGAUCCUUUGUCGCCGCUGGUCUCACUGACACAUCUACUCUUUUGGAUCAAGAAAUAAAUCGUUCCGAUACUAAGUCAACUGGACCUAAAGCUCCAAUUACAGACAUUGCCAUUAUUAUCAAAUCCAACAGAGGAUUGAGCAUCA
B3: chr21:26917921:26924620:-|three_prime_utr|ENSG00000154736|control|control|control (ssRNA)
RNA: GGGAGUUCUACAGUCCGACGAUCAGGAUUCCUGAAGGGGCAACCCACAUAAAAGUUCGACAGUUCAAAGCCAAAGACCAGACUAGAUUCACUGCCUAUUUAGCCCUGAAAAAGAAAAACGGUGAGUACCUUAUCAAUGGAAAGCAACAGAGGAUUGAGCAUCA
B4: ENSG00000107863:be:win_2651|CDS|ENSG00000107863|bound_else_gene|NA|bound_elsewhere_windowed (ssRNA)
RNA: GGGAGUUCUACAGUCCGACGAUCAGGGUCUGGAUGAUUACAGAGAAGAUGCAAAAUUGUCCUUUAAGCACGUAUCUAGUCUGAAGGGAAUCAAGAUCGCAGACAGCCAAAAGUCAUCAGAAGACUCUGGGUCCAGAAAAGAUUCAACAGAGGAUUGAGCAUCA
B5: chr13:108210031:108210147:-|CDS|ENSG00000174405|unk|total|mutant (ssRNA)
RNA: GGGAGUUCUACAGUCCGACGAUCAUGGUUAAUAAUAAAAAGCCCGGGCAUGAGACUCUGAGAAAGAGGUAUGAGAUUCUCCGCCGUAUUUUUACACCAAUUCCAGGCCGAACCGAAACCGUGCAGAAAACACAAGCUCAUACUCAACAGAGGAUUGAGCAUCA
B6: chr13:38882223:38882324:+|3pUTR|ENSG00000150893|msi1|total|mutant (ssRNA)
RNA: GGGAGUUCUACAGUCCGACGAUCAGAAAAAUAAGGUCAGGAGAAAAAGAAUAAUGCCUACAGAUUAUCCUUCAGAUGCUGGCCCGAAUCCCCUUUGACUUCCCGCCAUAAGCUGGCCACAUUGGACAUCUUGGUCACUGCAGACAACAGAGGAUUGAGCAUCA
B7: chr18:67510860:67510961:-|3pUTR|ENSG00000171451|msi1|total|mutant (ssRNA)
RNA: GGGAGUUCUACAGUCCGACGAUCACUAAUAAUACUUACCAACCCACUUUGUGGAUAUGAAUCAGAAGAGUUUGUUUAUUCUUCCGUGUGUGUGUGUGUGUGCACGCGUGUAUGUGUUCAGUGUUGUUUGCACAGAGAGAUUGUCAACAGAGGAUUGAGCAUCA
B8: chr3:98799561:98799662:-|CDS|ENSG00000057019|msi1|total|mutant (ssRNA)
RNA: GGGAGUUCUACAGUCCGACGAUCUUCAGUUGGUCAGCCCUCCACAUCCACUUUCAAGGCUACGGGGAACCAACCUCCCCCACCCGUGGGAACUUACAAUACACUUCUCUCCAGGACUGACAGCUGCUCCUCAGCCCAGGCCCACAACAGAGGAUUGAGCAUCA
B9: chr4:76160418:76160736:-|3pUTR|ENSG00000138760|msi1|FALSE|unique (ssRNA)
RNA: GGGAGUUCUACAGUCCGACGAUCAGUUCCUUCCUCAGUUUCAGUUCUUUCCAGUGUUUUGUAGCUCACUGUCACUCACUGAAUAGAGAAACGUGUGCCCUAUACUUCCUGUGACAAUCAUUUUGCUGACAGAAUGAUGGAUGUCAACAGAGGAUUGAGCAUCA
B10: ENSG00000115464:stop:overlap|stop_codon|ENSG00000115464|stop_codon|NA|stop_codon (ssRNA)
RNA: GGGAGUUCUACAGUCCGACGAUCUCAGAAAGGAACAUACUCUCAAAAUAUUUACUUAUAUCAAUUCCUGGACACAGAGGAUGUAGAAGUACCAUUGCAUUUGCUUCGUUAUGUAUGUUUGUUUUGUGGGAAAAAUGGCCUUUCCAACAGAGGAUUGAGCAUCA
B11: chr1:235808650:235808751:-|CDS|ENSG00000143669|unk|FALSE|unique (ssRNA)
RNA: GGGAGUUCUACAGUCCGACGAUCUGGAAAUGGGAUGCUUUAAAGGCUUAUCAGAACUUUGUUUUUGAAGAAGACAGAUUACAUAGUAUACAGAUUGCAAAUCACAUUUGCAAUUUAAUCCAGAAAGGCAAUAUAGUUGUUCAGCAACAGAGGAUUGAGCAUCA
B12: chr11:119314942:119315043:-|CDS|ENSG00000076706|msi1|total|mutant (ssRNA)
RNA: GGGAGUUCUACAGUCCGACGAUCGGGAGACUCUGCCCCUCUUGCCGCCCAGGACCCUUCUCCUCCUCUGUGUCUCCUCCCAUCCGGUCCACAAGGAGAAGCGGACGCUCAUCUUCCGUGUGCGCCAGGGCCAGGGCCAGAGCGCAACAGAGGAUUGAGCAUCA
B13: chr19:54923508:54923872:-|three_prime_utr|ENSG00000167634|control|control|control (ssRNA)
RNA: GGGAGUUCUACAGUCCGACGAUCCGGGAUUCGGGUCUCUAAGAUGUCUUAUGAAUGCAGGUCAGAGGGUCACAUGUUAACACUAGAGUCUGUCGAGAGGUAGGAUUUGACACUGGUUUUCUCACUAUUUUUGGGAGAUUCUGCCAACAGAGGAUUGAGCAUCA
B14: chr10:128104542:128104643:-|CDS|ENSG00000148773|msi1|total|mutant (ssRNA)
RNA: GGGAGUUCUACAGUCCGACGAUCAAGUGAUGAGAAAAAUAUCAACACAUUUGUGGAAACUCCAGUGCAGAAACUGGACCUGCCCGGAAAUUUACCUGGCAGCAAGAGACAGCCACAGACUCCUAAGGAAAAGGCUGAGGCUCUCAACAGAGGAUUGAGCAUCA

Target: T1, UNK ZnF1-6 (called full-length)
Assay: nsRBNS (natural sequence RNA bind-n-seq); RBNS binding buffer (assumed for nsRBNS): 25 mM Tris pH 7.5, 150 mM KCl, 3 mM MgCl2, 0.01% Triton X-100, 500 ug/ml BSA, 20 U/ml SUPERase-In, 4 C; UNK is unkempt and MSI1 is Musashi-1; names of the RNAs are library labels; protein concentration not given here; high values mean tight binding

Binder	binding signal [enrichment R]
B1	1.12
B2	0.34
B3	0.599
B4	0.449
B5	0.726
B6	0.445
B7	0.339
B8	0.729
B9	0.297
B10	0.937
B11	0.599
B12	1.21
B13	0.765
B14	0.613
